The source of these data is a collection of fitness landscapes (doi:10.1126/science.1257360).

The other results are listed elsewhere or left out.

B1: PhoQ; a variant is named by its letters at X, in order, P23837 (parent)
chain: MKKLLRLFFPLSLRVRFLLATAAVVLVLSLAYGMVALIGYSVSFDKTTFRLLRGESNLFYTLAKWENNKLHVELPENIDKQSPTMTLIYDENGQLLWAQRDVPWLMKMIQPDWLKSNGFHEIEADVNDTSLLLSGDHSIQQQLQEVREDDDDAEMTHSVAVNVYPATSRMPKLTIVVVDTIPVELKSSYMVWSWFIYVLSANLLLVIPLLWVAAWWSLRPIEALAKEVRELEEHNRELLNPATTRELTSLVRNLNRLLKSERERYDKYRTTLTDLTHSLKTPLXXLQXXLRSLRSEKMSVSDAEPVMLEQISRISQQIGYYLHRASMRGGTLLSRELHPVAPLLDNLTSALNKVYQRKGVNISLDISPEISFVGEQNDFVEVMGNVLDNACKYCLEFVEISARQTDEHLYIVVEDDGPGIPLSKREVIFDRGQRVDTLRPGQGVGLAVAREITEQYEGKIVAGESMLGGARMEVIFGRQHSAPKDE

Variants of B1 are the subject of the test. Put plainly: enrichment ratio after two sorts for PhoP signalling (ratio (wild type AVST 3.29)); higher = more functional. The settings on record: with PhoP (E. coli).
With LAFI, the enrichment ratio was 3.17.

For QPFA, the enrichment ratio is no more than 0.25.

For VLAQ, the enrichment ratio was no more than 0.25.

For WEIP, the enrichment ratio is no more than 0.25.

Regarding LYYW, the enrichment ratio is no more than 0.25.

Consider FTNW, for which the enrichment ratio is no more than 0.25.

With ITSD, the enrichment ratio is no more than 0.25.

Regarding IMYV, the enrichment ratio was no more than 0.25.

Regarding QSDQ, the enrichment ratio turned out to be 2.13.

Regarding NKRG, the enrichment ratio is no more than 0.25.

Regarding QQAY, the enrichment ratio is no more than 0.25.

Regarding PMYV, the enrichment ratio is no more than 0.25.

On to WVEK, for which the enrichment ratio is no more than 0.25.

Take GCCW: the enrichment ratio is no more than 0.25.

As to MDHE, the enrichment ratio was no more than 0.25.

On to SFDT, for which the enrichment ratio is no more than 0.25.

As to VNFA, the enrichment ratio was no more than 0.25.

For PYDP, the enrichment ratio is no more than 0.25.

As for EDAS, the enrichment ratio is no more than 0.25.

Consider NMTH, for which the enrichment ratio was no more than 0.25.

In the case of LGDS, the enrichment ratio was no more than 0.25.

With WYHE, the enrichment ratio was no more than 0.25.

On to LESD, for which the enrichment ratio is no more than 0.25.

As to WYWY, the enrichment ratio was no more than 0.25.

NSPP: the enrichment ratio amounted to 1.17.

On to EAQF, for which the enrichment ratio is no more than 0.25.

For the variant AMMN, the enrichment ratio turned out to be 1.37.

Turning to GGYG, the enrichment ratio is no more than 0.25.

With QEIA, the enrichment ratio was no more than 0.25.

For the variant YDSN, the enrichment ratio is no more than 0.25.

With DIFE, the enrichment ratio is no more than 0.25.

Take INGG: the enrichment ratio is no more than 0.25.

As for LIHG, the enrichment ratio is no more than 0.25.

For MTCM, the enrichment ratio is 12.2.

As to ERKH, the enrichment ratio was no more than 0.25.

In the case of VQKV, the enrichment ratio was no more than 0.25.

Turning to WGPG, the enrichment ratio was no more than 0.25.

For the variant RRST, the enrichment ratio was no more than 0.25.

Turning to DHRN, the enrichment ratio is no more than 0.25.

With PWMG, the enrichment ratio was no more than 0.25.

Regarding DMPF, the enrichment ratio is no more than 0.25.

As to VGTL, the enrichment ratio is no more than 0.25.

Regarding MTKD, the enrichment ratio is no more than 0.25.

For IFQL, the enrichment ratio is no more than 0.25.

For NSMC, the enrichment ratio is no more than 0.25.

With PDVY, the enrichment ratio was no more than 0.25.

With ANAV, the enrichment ratio stood at 14.3.

In the case of HCGL, the enrichment ratio is no more than 0.25.

QAPC: the enrichment ratio is no more than 0.25.

On to RRQA, for which the enrichment ratio was no more than 0.25.

For the variant TKDS, the enrichment ratio is no more than 0.25.

As to MMYM, the enrichment ratio was no more than 0.25.

With RRAR, the enrichment ratio is no more than 0.25.

Consider KYAH, for which the enrichment ratio is no more than 0.25.

For the variant NIYS, the enrichment ratio was no more than 0.25.

For EDLE, the enrichment ratio was no more than 0.25.

Turning to ASNP, the enrichment ratio is no more than 0.25.

Regarding HTRQ, the enrichment ratio was no more than 0.25.

As to PDYW, the enrichment ratio is no more than 0.25.

In the case of KCPE, the enrichment ratio is no more than 0.25.

Regarding GGSP, the enrichment ratio is no more than 0.25.

For the variant YPIN, the enrichment ratio was no more than 0.25.

In the case of MTNI, the enrichment ratio was no more than 0.25.

Take YMTY: the enrichment ratio is no more than 0.25.

With WCNI, the enrichment ratio was no more than 0.25.

In the case of LSVL, the enrichment ratio was no more than 0.25.

Turning to DLPF, the enrichment ratio is no more than 0.25.

Regarding PNLM, the enrichment ratio was no more than 0.25.

Turning to ENES, the enrichment ratio is no more than 0.25.

With GNIW, the enrichment ratio is no more than 0.25.

As for FHNK, the enrichment ratio was 5.86.

In the case of RGGF, the enrichment ratio was no more than 0.25.

Regarding ILKV, the enrichment ratio was no more than 0.25.

As to LRSE, the enrichment ratio was no more than 0.25.

Regarding LRGM, the enrichment ratio was no more than 0.25.

For VGWL, the enrichment ratio was 0.787.

In the case of VMTG, the enrichment ratio is no more than 0.25.

As to PLKL, the enrichment ratio is no more than 0.25.

As for LVKA, the enrichment ratio is no more than 0.25.

With KHYM, the enrichment ratio is no more than 0.25.

On to HDHS, for which the enrichment ratio is no more than 0.25.

Consider MMFH, for which the enrichment ratio is no more than 0.25.

As for FQMP, the enrichment ratio was no more than 0.25.

Turning to QKVQ, the enrichment ratio is no more than 0.25.

Turning to TNLA, the enrichment ratio stood at 8.08.

Take QSCL: the enrichment ratio turned out to be 0.738.

As for NLFS, the enrichment ratio is no more than 0.25.

As for TSRQ, the enrichment ratio is no more than 0.25.

Take KETH: the enrichment ratio stood at 2.2.

Take TVWW: the enrichment ratio is no more than 0.25.

Consider VITW, for which the enrichment ratio was no more than 0.25.

In the case of AFTM, the enrichment ratio worked out at 3.07.

Turning to LSGG, the enrichment ratio was no more than 0.25.

Take PQYQ: the enrichment ratio was no more than 0.25.

Turning to GHKF, the enrichment ratio was no more than 0.25.

Regarding AKSP, the enrichment ratio is no more than 0.25.

Take LNKG: the enrichment ratio was no more than 0.25.

As for DGSL, the enrichment ratio is no more than 0.25.

Turning to MYPR, the enrichment ratio is no more than 0.25.

Take QDVT: the enrichment ratio was no more than 0.25.

For the variant VLPT, the enrichment ratio is no more than 0.25.

RPIC: the enrichment ratio was no more than 0.25.

With NTEP, the enrichment ratio was no more than 0.25.

On to GKYC, for which the enrichment ratio is no more than 0.25.

For GIWI, the enrichment ratio was no more than 0.25.

For the variant SNTC, the enrichment ratio is 6.48.

Regarding KKMV, the enrichment ratio was no more than 0.25.

Regarding NSSK, the enrichment ratio was no more than 0.25.

As for YKTA, the enrichment ratio was no more than 0.25.

As for IHQV, the enrichment ratio is no more than 0.25.

For the variant WWSI, the enrichment ratio is no more than 0.25.

As to RSCE, the enrichment ratio is no more than 0.25.

In the case of WTCP, the enrichment ratio was no more than 0.25.

For the variant RCIH, the enrichment ratio is no more than 0.25.

With DLPY, the enrichment ratio is no more than 0.25.

Take KAND: the enrichment ratio is no more than 0.25.

Regarding LPTR, the enrichment ratio is no more than 0.25.

As to ECRQ, the enrichment ratio was no more than 0.25.

For DAKH, the enrichment ratio is no more than 0.25.

Take KKVL: the enrichment ratio is no more than 0.25.

Regarding IQSL, the enrichment ratio was no more than 0.25.

Take YWNC: the enrichment ratio was no more than 0.25.

Regarding VQCR, the enrichment ratio was no more than 0.25.

Turning to YRPQ, the enrichment ratio is no more than 0.25.

Consider ECHD, for which the enrichment ratio is no more than 0.25.

In the case of WFFH, the enrichment ratio was no more than 0.25.

As for GGKP, the enrichment ratio is no more than 0.25.

Consider EGYP, for which the enrichment ratio was no more than 0.25.

Consider YLRT, for which the enrichment ratio is no more than 0.25.

With EDCW, the enrichment ratio was no more than 0.25.

Consider STSC, for which the enrichment ratio came to 11.6.

As for KPYF, the enrichment ratio is no more than 0.25.

For RWFM, the enrichment ratio is no more than 0.25.

For GLTR, the enrichment ratio is no more than 0.25.

In the case of PLRW, the enrichment ratio was no more than 0.25.

For the variant SYCH, the enrichment ratio was 0.609.

TWFA: the enrichment ratio was no more than 0.25.

As to HLLK, the enrichment ratio was no more than 0.25.

Turning to YFIN, the enrichment ratio was no more than 0.25.

With FKEK, the enrichment ratio was no more than 0.25.

For the variant IPSM, the enrichment ratio was no more than 0.25.

Regarding KTSP, the enrichment ratio is no more than 0.25.

Turning to WPFN, the enrichment ratio was no more than 0.25.

Consider AGSL, for which the enrichment ratio was found to be 10.4.

For the variant PQYH, the enrichment ratio was no more than 0.25.

Turning to YIFQ, the enrichment ratio is no more than 0.25.

On to RGAG, for which the enrichment ratio was no more than 0.25.

As for MMSC, the enrichment ratio was no more than 0.25.

Regarding LFRD, the enrichment ratio is no more than 0.25.

For HSAF, the enrichment ratio was no more than 0.25.

LPNK: the enrichment ratio was no more than 0.25.

As for IRYC, the enrichment ratio is no more than 0.25.

For the variant PQKA, the enrichment ratio was no more than 0.25.

FCAR: the enrichment ratio is no more than 0.25.

IYVF: the enrichment ratio is no more than 0.25.

In the case of AKAL, the enrichment ratio stood at 11.1.

For the variant QIVD, the enrichment ratio was no more than 0.25.

For LNNR, the enrichment ratio was no more than 0.25.

For NLPI, the enrichment ratio was no more than 0.25.

Consider MSSE, for which the enrichment ratio is no more than 0.25.

Consider RFGE, for which the enrichment ratio is no more than 0.25.

Regarding HSCS, the enrichment ratio was no more than 0.25.

YGCR: the enrichment ratio is no more than 0.25.

For the variant SEEF, the enrichment ratio was no more than 0.25.

For the variant IWFE, the enrichment ratio was no more than 0.25.

Consider GLKH, for which the enrichment ratio was no more than 0.25.

Consider PPYN, for which the enrichment ratio is no more than 0.25.

As to ETLF, the enrichment ratio is no more than 0.25.

Take DNLW: the enrichment ratio is no more than 0.25.

In the case of EPTH, the enrichment ratio was no more than 0.25.

For the variant RQDV, the enrichment ratio is 0.887.

In the case of SGRG, the enrichment ratio is no more than 0.25.

As for TSAR, the enrichment ratio is no more than 0.25.

For YVFS, the enrichment ratio was no more than 0.25.

TNSI: the enrichment ratio stood at 15.8.

As for QCWI, the enrichment ratio was 37.7.

For VYEQ, the enrichment ratio was no more than 0.25.

For the variant IWHD, the enrichment ratio is no more than 0.25.

With MKSK, the enrichment ratio was no more than 0.25.

Consider MFQR, for which the enrichment ratio is no more than 0.25.

KIEG: the enrichment ratio was no more than 0.25.

Turning to FWVD, the enrichment ratio is no more than 0.25.

With VHMS, the enrichment ratio is no more than 0.25.

As to RAVL, the enrichment ratio is no more than 0.25.

Regarding LIHN, the enrichment ratio is no more than 0.25.

As for DFFN, the enrichment ratio is no more than 0.25.

Turning to AQIP, the enrichment ratio is no more than 0.25.

Consider HSKE, for which the enrichment ratio was no more than 0.25.

As for YPFD, the enrichment ratio is no more than 0.25.

For the variant PIAI, the enrichment ratio was no more than 0.25.

As to YGCE, the enrichment ratio was no more than 0.25.

Consider VDNG, for which the enrichment ratio was no more than 0.25.

On to SWPQ, for which the enrichment ratio was no more than 0.25.

Regarding LMFL, the enrichment ratio was no more than 0.25.

For the variant YFRH, the enrichment ratio stood at 0.332.
